The list shows a part of the results.

The assay has as its system PF3D7_0420300 AP2 domain 1 (GST-tagged). Kind of assay: gcPBM binding intensity (ln(normalized median fluorescence intensity)); higher = stronger DNA binding. In a few lines:
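Binding of GST-tagged P. falciparum DNA-binding domains, expressed in E. coli and used at about 25 μg on average, was carried out for 1 h in 1× PBS containing 1% milk, 0.2 mg/ml BSA, 0.5% salmon testes DNA and 0.03% Triton X-100. The target was an Agilent 4 × 180k array of primer-extended double-stranded 36-bp intergenic genomic probes plus negative controls, read with Alexa488 anti-GST antibody at 488 nm. Binding intensity is the highest Masliner-normalised natural-log median intensity across replicate spots of either probe orientation.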
Regarding “ATATTTTTTTTTTCGTGTACGCATAAATATATCTAA [XGTACX_site3360]”, the “gcPBM binding intensity (ln)” value turned out to be 9.24.

Turning to “TAGATAAACAAGAAATGTACAAACGTAAATATGTTC [XGTACX_site2373]”, the “gcPBM binding intensity (ln)” value was found to be 9.51. Consider “ATATATTATTTCTAGTGTACATACCCATATATAATA [XGTACX_site8902]”, for which the “gcPBM binding intensity (ln)” value came to 9.46.

For “ATAAATAAGATATATACACACATATCTATACATATT [CACACA_site6369]”, the “gcPBM binding intensity (ln)” value amounted to 9.58. On to “AATCCACTTTTTTATGTTATACAATATAAATTAAAT [XGTACX_negctrl_site446]”, for which the “gcPBM binding intensity (ln)” value was 9.17.

In the case of “GGCTAAAAGGGGCACACACACAAAAAAAAAAAAAAA [CACACA_site3288]”, the “gcPBM binding intensity (ln)” value amounted to 9.59.

As to “ATTTAAGAAAAAAGTTGTACTTATTTATTTTTATTT [XGTACX_site5561]”, the “gcPBM binding intensity (ln)” value was determined as 9.12. As to “ATACATATAAATAATTGTACTATTAAAAAAGAACGT [XGTACX_site3751]”, the “gcPBM binding intensity (ln)” value is 9.4. Turning to “CAATTAGCATTTTATTGTACATTTATAATCTATGAT [XGTACX_site1445]”, the “gcPBM binding intensity (ln)” value is 9.25. To “AAAAAAAAAAATACTCGTACATAAACCTATACATTT [XGTACX_site6494]” belongs 9.44; to “CTTAGAATATATGAATGTACTTTTTTTTTTAAATAA [XGTACX_site6048]”, 8.7; to “AGTATACAGATATATACACACATATATATATATATA [CACACA_site4323]”, 9.39. The same measure for “ATAATATATTTTTGTAGTACACTTCTGGTAATATCG [XGTACX_site2402]”: 9.31; for “TATATATATATATGTTGTACAAAAATGTAAAATATA [XGTACX_site7761]”: 9.24. With “TCATTTTATTTTTTCACACACACATCTATATTTATA [CACACA_site7547]”, the “gcPBM binding intensity (ln)” value amounted to 10. “ACAAAAATAAACTATAGTACACACTTATTATTATGA [XGTACX_site5680]”: the “gcPBM binding intensity (ln)” value turned out to be 9.39. For “TAAGTAACTTTTAAAAGTACCCACACATATATATAT [XGTACX_site1231]”, the “gcPBM binding intensity (ln)” value came out at 9.42. For “TTTCTTTTTTTTTTTTTTTTTTTTTTTTTTTTTTTT [TGCATGCA_negctrl_site91]”, the “gcPBM binding intensity (ln)” value turned out to be 9.1.

Regarding “AAAAAAAAGAAAAACACACACATATATATATAGAAT [CACACA_site1006]”, the “gcPBM binding intensity (ln)” value came out at 10.2. The same measure for “TTTCCCTTGTTGTAAACATGCACAATATTTAGGTAT [TGCATGCA_site49]”: 9.3; for “TATATTTATAGGTATACACACATATGTATGTTATGT [CACACA_site7824]”: 9.5; for “TTATGTATTTATATAAATATAAATATATATATATAT [CACACA_negctrl_site774]”: 8.99. To “TCTTAATATCGTTTCTCACACATATACAAACATAAA [CACACA_site5700]” belongs 9.27; to “TATTATAGAAATTTAATGTTGGACAAAAAAATGAAA [CACACA_negctrl_site1351]”, 9.25. To “AATATATGAATTATATGTACATATAGATAAGTCACA [XGTACX_site7637]” belongs 9.32. Take “AGAGAGAAAGCTATAACATGCAACAATTTTTAGAAC [TGCATGCA_site596]”: the “gcPBM binding intensity (ln)” value was 9.46. As for “AAATTATTTATTTTATGTACATATTATTAAAGTTAA [XGTACX_site552]”, the “gcPBM binding intensity (ln)” value was 9.07. The same measure for “ATAAATGACAAATTAACACACATATATTATAGATAT [CACACA_site7770]”: 9.68; for “AAAATGTGATATGTAAATATATATGTATGTATATAT [CACACA_negctrl_site1748]”: 9.42; for “ATCTATATTTAATTTACACACAAAAAAAATTGTTGG [CACACA_site6582]”: 9.53. To “TAATGCATTTTCGCATGTACATATTTCTCTTTATAT [XGTACX_site8915]” belongs 9.23. Take “ATAATATTAATATGTACACACCTTAATCCTTAAAAG [CACACA_site7640]”: the “gcPBM binding intensity (ln)” value came out at 9.28. As for “GTATTTATATGATTAACACACATATGGGTATTAATA [CACACA_site4853]”, the “gcPBM binding intensity (ln)” value was determined as 9.34. The same measure for “TATACCTGAATTAAAAGTACATGTATATATTTTCCC [XGTACX_site3594]”: 9.18; for “ATAATTTTTTAAGTGTGTACTAAAATGTGTATTTTA [XGTACX_site6227]”: 9.36; for “TTGCATTTTCTAGTAACACACAATTAGCGTTGCTGT [CACACA_site3594]”: 9.32. To “TAACAAAAAGGGAACACATGCGCTCTTTATTTATTT [TGCATGCA_site620]” belongs 9.38. As to “TATAGAAGCATTCACACACACACATACATACACATA [CACACA_site1466]”, the “gcPBM binding intensity (ln)” value turned out to be 10.2. To “ACACATACATATACATACACATTGTTTTCATGCATC [XGTACX_negctrl_site126]” belongs 9.52; to TATATGTGTCTACAGGTGCATATATCATATATTGCT, 9.27; to “TATAAATATTTATACACACACATATATTTATATATC [CACACA_site6366]”, 9.82.

For “TAAATAAATTTATACACACACACACGGATATAAATA [CACACA_site6532]”, the “gcPBM binding intensity (ln)” value is 10.1.

Turning to “ATATTTTCTTTAAATTGTACATATTGTGATACAAAA [XGTACX_site5886]”, the “gcPBM binding intensity (ln)” value was 8.92. With “TATGTATTTTTATGCACACATGCGTGGCTTATATAA [CACACA_site387]”, the “gcPBM binding intensity (ln)” value was 9.26. The same measure for “TATATACATACATGTAGTACCTAATTCGGTCCCGTA [XGTACX_site2702]”: 9.2; for “TTTCATTTAGCTTTTACACACTATATATTATTGATT [CACACA_site16]”: 9.59; for “GTTTGGTGGTGTTTTGGTACGTACGGGGGGGTATGT [XGTACX_site1983]”: 10.9.

As to “TTTTTTTTTTTTTATTGTACTTATTTTTTTATGTTT [XGTACX_site7725]”, the “gcPBM binding intensity (ln)” value stood at 9.43. To “GTATTATATATATAGGTGCATATATATATATAAATA [GTGCAC_site9787]” belongs 9.14. To “AAATATAAAGGATTAATATTATATATATATATATAT [XGTACX_negctrl_site211]” belongs 9.06.

As to “TTGAAATATACGTAAGTAAATTTCATTTGGTTGTGT [XGTACX_negctrl_site600]”, the “gcPBM binding intensity (ln)” value stood at 9.14. To “AAAATATTTATTACTTCACACATTATTGTATTTATA [CACACA_site5082]” belongs 9.46; to “CATATATTATTATATGCACACATGAAAATATACAAA [CACACA_site2795]”, 9.49. The same measure for “GTATAACTTTTGCGCGTACACACATTTATCCTCTTT [CACACA_site208]”: 10; for “TTTCTTTTTTTATAATCCACATTGGGAAAATCAAAA [TGCATGCA_negctrl_site159]”: 8.72; for “ACGTATAATATGTACACACACATATATACAAAAAAA [CACACA_site917]”: 9.71.

Source of the values: the supplement of paper PMC11417369.
